Publication PMC4891693, “Discovery of prenylated flavonoids with dual activity against influenza virus and Streptococcus pneumoniae” (Scientific Reports, 2016)
Converted amounts (≈) assume the structure as drawn.

Test system: NA of influenza virus A/Jena/5258/2009 (5258/09)

Structure (SMILES)	MIC in HA assay against IAV 5258/09 [µM]
CCC(CC)O[C@@H]1C=C(C(=O)O)C[C@H](N)[C@H]1NC(C)=O [Oseltamivir carboxylate GS4071, reference compound]	0.002 ± 0.001 (≈ 0.000569 µg/mL)
CC(C)=CCC/C(C)=C/Cc1c(O)ccc([C@@H]2CC(=O)c3c(O)cc(O)cc3O2)c1O [Compound 5, sanggenol A]	31.6 ± 0.00 (≈ 13.4 µg/mL)
CC(C)=CCc1c(O)cc(O)c2c1O[C@@H](c1ccc(O)cc1)[C@H](O)C2=O (relative stereo) [Compound 23, (2R,3R)-rel-4H-2,3-dihydro-3,5,7-trihydroxy-2-(4-hydroxyphenyl)-8-(3-methyl-2-buten-1-yl)-1-benzopyran-4-one]	100 ± 0.00 (≈ 35.6 µg/mL)
O=c1c(O)c(-c2ccc(O)cc2O)oc2cc(O)cc(O)c12 [Compound 16, morin]	70.7 ± 36.6 (≈ 21.4 µg/mL)
CC(C)=CCc1cc(C2CC(=O)c3ccc(O)cc3O2)ccc1O (racemic) [Compound 18, (±)-abyssinone II]	100 ± 0.00 (≈ 32.4 µg/mL)
CC(C)=CCc1c(O)c(CC=C(C)C)c2c(c1O)C(=O)C[C@@H](c1ccc(O)cc1)O2 [Compound 28, 6,8-diprenylnaringenin]	54.4 ± 35.3 (≈ 22.2 µg/mL)
COc1cc(C2CC(=O)c3c(cc(O)c(CC=C(C)C)c3O)O2)ccc1O (centres unmarked) [Compound 22, 2,3-dihydro-5,7-dihydroxy-2-(4-hydroxy-3-methoxyphenyl)-6-(3-methyl-2-buten-1-yl)-4H-1-benzopyran-4-one]	100 ± 0.00 (≈ 37 µg/mL)
CC(C)=CCc1c(O)cc(CCc2ccccc2)c(CC=C(C)C)c1O [Compound 33, 2,4-bis(3-methyl-2-buten-1-yl)-5-(2-phenylethyl)-1,3-benzenediol]	31.6 ± 0.00 (≈ 11.1 µg/mL)
COc1cc(C2CC(=O)c3c(O)cc(O)cc3O2)cc(CC=C(C)C)c1O (centres unmarked) [Compound 21, 2,3-dihydro-5,7-dihydroxy-2-[4-hydroxy-3-methoxy-5-(3-methyl-2-butenyl)phenyl]-4H-1-benzopyran-4-one]	86.3 ± 30.6 (≈ 32 µg/mL)
CC(C)=CCC/C(C)=C/Cc1c(O)cc(O)c2c1OC(c1ccccc1)CC2=O (racemic) [Compound 24, (R,S)-8-geranyl-5,7-dihydroxyflavanone]	20.8 ± 10.8 (≈ 8.16 µg/mL)
O=C1CC(c2ccc(O)c(O)c2)Oc2cc(O)cc(O)c21 (racemic) [Compound 11, (±)-eriodictyol]	77.2 ± 35.3 (≈ 22.3 µg/mL)
